Some of the results follow.
system: T1, C. trachomatis L2/434/Bu expressing GFP (CTL2-GFP); parameters: species or system HeLa; C. trachomatis total inclusion area by high-content imaging, normalised to DMSO; details: total inclusion area; 28.5 h, 10 µM; inhibitor
T1 construct: L2/434/Bu GFP intracellular growth in HeLa cells
Summary of the method: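 Host cell viability was gauged from Hoechst-stained nuclei counts, while chlamydial growth was taken from total inclusion area and inclusion number per well. Cells were fixed and imaged by high-content microscopy once bulk GFP and resorufin fluorescence had been measured.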

| Compound | % of control remaining |
| --- | --- |
| CS(=O)(=O)c1ccc(-c2cnc(N)c(NCC3CCOCC3)n2)cc1 [CBK063849] | 80.9757 |
| O=C(Cn1cc(C(=O)NC2CCCC2)ccc1=O)NCC1(c2ccccc2)CCCC1 [CBK286248] | 91.3805 |
| CCOC(=O)C(C(C)=O)(N1CCOCC1)N1CCOCC1 [CBK261173] | 105.991 |
| C[C@@H]1CN(C(=O)OCc2nccn2C)C[C@H](C)O1 [CBK200142] | 89.577 |
| O=C(CCN1C(=O)c2ccc(Br)cc2C1=O)N1CCN(Cc2ccccc2)CC1 [CBK269238] | 89.9353 |
| CN(CCCn1c(=S)[nH]c2ccccc2c1=O)C1CCCCC1 [CBK296642] | 83.017 |
| CCn1c(CN2CCCC2c2noc(C)n2)nc2cc(F)ccc21 (stereo not shown) [CBK305250] | 12.058 |
| CN(Cc1cccnc1)C(=O)Cc1ccc(-n2cccn2)cc1 [CBK297726] | 87.1981 |
| Cc1ccccc1C(=O)Nc1cc(NC(=O)c2ccccc2C)cc(C(=O)O)c1 [CBK262007] | 104.928 |
| Cc1cccc(C(=O)NCCc2nc3ccccc3[nH]2)c1 [CBK263493] | 101.415 |
| O=C(CN1C(=O)c2ccccc2C1=O)Nc1cccc2cccnc12 [CBK261320] | 102.213 |
| O=C(CSCc1ccc(Cl)c(Cl)c1)Nc1ncccn1 [CBK269998] | 98.8124 |
| NS(=O)(=O)c1ccc(NC(=O)CSc2nc3sc4c(c3c(=O)[nH]2)CCC4)cc1 [CBK265554] | 122.818 |
| O=C(Cc1cccc(F)c1)NCCn1nc(-c2ccco2)ccc1=O [CBK283708] | 99.3752 |
| O=C(N1CCOCC1)C12CC3CC(CC(C3)C1)C2 [CBK089368] | 89.6424 |
| Cc1nc[nH]c1CN(Cc1ccccc1)C1CC(C)(C)NC(C)(C)C1 [CBK283178] | 104.684 |
| CC(C)(CO)CNc1nc(-c2ccc(F)c(Cl)c2)cnc1N [CBK063484] | 72.4718 |
| O=C(NC(N1CCCCC1)C(Cl)(Cl)Cl)c1ccc(Cl)cc1Cl (stereo not shown) [CBK261024] | 89.8344 |
| CCC(=O)N1CCc2cc(C(O)CN3CCCCC3)ccc21 (stereo not shown) [CBK283111] | 117.177 |
| CC(C)(C)OC(=O)N1CCC(OCc2cn(-c3ccc(-n4cncn4)cc3)nn2)CC1 [CBK149477] | 33.8892 |
| Cc1nc2ccc(C(=O)NCCCN3Cc4ccccc4C3)cc2[nH]1 [CBK283301] | 100.367 |
| CNC(=O)c1ccc(-c2ccccc2C)nc1NCCOC [CBK106007] | 111.688 |
| Cc1cc(NC(=O)c2cccc(C(F)(F)F)c2)c2ccccc2n1 [CBK116263] | 94.5537 |
| Cn1ccc(CN2CCOC(c3nccs3)C2)cc1=O (stereo not shown) [CBK304921] | 46.9595 |
| O=C(CCN1C(=O)c2ccccc2C1=O)NC(=S)Nc1ccccc1 [CBK267595] | 88.31 |
| O=[N+]([O-])c1ccc(CN2CCC(Oc3cncc(OCc4cccnc4)n3)C2)cc1 (stereo not shown) [CBK084456] | 91.9218 |
| CCOC1(c2ccccc2)N=C2C(Cl)=CC(C(F)(F)F)=CN2N=C1c1ccccc1 (stereo not shown) [CBK020634] | 103.629 |

| Compound | % of control remaining |
| --- | --- |
| C[S+]([O-])c1ccc(-c2cnc(NCC3CCN(C(=O)OC(C)(C)C)CC3)cn2)cc1 (stereo not shown) [CBK173723] | 59.0609 |
| Cc1ccc(C(=O)N2CCC3(CC2)CNC(=O)c2ccccc2O3)o1 [CBK285328] | 86.7365 |
| O=C(NCCOc1ccccc1)N1CCN(Cc2ccccc2)CC1 [CBK155652] | 88.8865 |
| Clc1ccc(COc2cncc(OC3CCN(CC4CC4)C3)n2)cc1Cl (stereo not shown) [CBK084443] | 78.0526 |
| COc1ccc(Cl)cc1NC(=O)CCSc1ccccc1 [CBK263969] | 103.148 |
| O=C(c1cccnc1)C1CCN(C(=O)Cc2ccc(Cl)cc2)CC1 [CBK283813] | 96.5781 |
| O=C(O)c1ccc(C(=O)O)c2c(C(=O)O)cccc12 [CBK261356] | 109.371 |
| O/N=C/c1ccc(-c2cc(Cl)ccc2Cl)o1 [CBK288500] | 112.034 |
| CCC#CC(=O)Nc1cncc(OC2CCNCC2)n1 [CBK026731T] | 82.8666 |
| COCCN(Cc1cc2ccc(C)cc2nc1O)C(=O)c1cccs1 [CBK269324] | 90.3354 |
| CCN1CCN(Cc2ccccc2[N+](=O)[O-])CC1 [CBK261561] | 95.6975 |
| N#CCCn1cc(C(=O)N2CCCCC2)c(-c2cccs2)n1 [CBK306194] | 41.4972 |
| O=C(NC1CCCC1)C1CCCN1c1nc(O)cc(C(F)(F)F)n1 (stereo not shown) [CBK003927] | 94.6431 |
| O=C(CN1CCCC2(CCN(C(=O)Cc3c[nH]c4ccccc34)C2)C1)Nc1ncccn1 (stereo not shown) [CBK132048] | 80.7761 |
| O=C1C(c2ccccc2)=C(c2ccccc2)C(c2ccc(C3=C(c4ccccc4)C(=O)C(c4ccccc4)=C3c3ccccc3)cc2)=C1c1ccccc1 [CBK261220] | 98.6252 |
| O=C(O)c1ccc(CNC(=O)c2cnc(-c3ccc(F)cc3)c(-c3ccc(O)cc3)c2)cc1 [CBK037996] | 116.125 |
| Cc1cc(OC(F)(F)F)ccc1S(=O)(=O)Nc1nc(CC(=O)O)cs1 [CBK000575] | 83.327 |
| COC(=O)[C@H](CC1CCCCC1)NS(=O)(=O)c1ccc(C(C)C)cc1 [CBK044551] | 88.1809 |
| CCOC(=O)Cn1nc(CC)n2c(cc3ccsc32)c1=O [CBK284133] | 66.602 |
| CCn1cncc1CN1CCCC(O)(c2ccc(F)cc2)CC1 (stereo not shown) [CBK284838] | 104.018 |
| NC(=O)[C@@H]1C[C@@H](O)[C@H](O)[C@H]2[C@@H]1N(c1ccccc1)C(=S)N2Cc1ccc(F)cc1 [CBK288928] | 136.869 |
| O=C(c1nn2c(c1Br)NC(c1cccs1)CC2C(F)(F)F)N1CCCC1 (stereo not shown) [CBK307180] | 99.3908 |
| CCCC/C=C/c1ccc(N2CCN(CCN(C)C)CC2)nc1 [CBK036980] | 114.798 |
| O=C(Nc1ccc2n(c1=O)C[C@H]1C[C@@H]2CN(C(=O)Cc2cccs2)C1)c1ccco1 [CBK289204] | 84.2339 |
| CCOc1cc(/C=N/O)ccc1OC(=O)c1cccc([N+](=O)[O-])c1 [CBK090036] | 80.9157 |
| O=C(CCC1CCCC1)N1C[C@@H]2CCCCN(CC3CC3)[C@@H]2C1 [CBK285531] | 92.4204 |
| CCn1cc(C(=O)O)c(=O)c2cc(F)c(N3CCN(C(=S)Nc4cccc5ccccc45)CC3)cc21 [CBK265809] | 81.0008 |

| Compound | % of control remaining |
| --- | --- |
| COc1cc(C(=O)Nc2ccc(-c3nc4ncccc4o3)cc2)ccc1OCc1ccc(Cl)cc1 [CBK033914] | 95.6578 |
| COC(=O)COc1nccnc1-c1ccc(OC(F)(F)F)cc1 [CBK106849] | 99.5861 |
| Cc1ccc(S(=O)(=O)N2CCN(CCC(=O)O)CC2)cc1 [CBK269443] | 99.2419 |
| Cc1cc(Cl)c(S(=O)(=O)N2CC(C)OC(C)C2)cc1OCC(N)=O (stereo not shown) [CBK266452] | 95.5001 |
| CSCCCNC(=O)c1cc(-c2ccc(C(=O)N3CCOCC3)cc2)cnc1N [CBK158568] | 87.9256 |
| Cc1nc2sc(C(=O)OCc3cc(=O)oc4cc5c(cc34)CCC5)c(C)c2c(=O)[nH]1 [CBK297528] | 77.2455 |
| CCN(CC)CCCCC1(C)SC(NC2CCCCCC2)=NC1=O (stereo not shown) [CBK113257] | 57.7057 |
| CC(C)(CO)CNc1nc(-c2cccnc2)cnc1N [CBK063475] | 110.071 |
| COc1cnc(-c2ccccc2OC)c(NC(=O)Cc2ccccc2)n1 [CBK145260] | 108.393 |
| c1cc(-c2cncc(-c3ccsc3)n2)cs1 [CBK113356] | 110.597 |
| COc1ccc(C(=O)NCc2ccc(S(N)(=O)=O)cc2)cc1[N+](=O)[O-] [CBK263629] | 88.5062 |
| c1ccc(-c2nc(-c3ccncc3)sc2-c2ccccc2)cc1 [CBK291203] | 78.8011 |
| Cc1ccc(CN(CCCn2ccnc2)Cc2nc3ccccc3[nH]2)o1 [CBK283103] | 93.8087 |
| COC(=O)CCCC(=O)n1c(=O)n(CC2CCCCC2)c2ccccc21 [CBK106524] | 90.1475 |
| CCOC(=O)C1(Cc2cc(-c3cccc(F)c3)no2)CCNCC1 [CBK284881] | 93.6648 |
| O=C(O)C1CC=CCC1C(=O)NCCCCc1ccccc1 (stereo not shown) [CBK265460] | 84.0478 |
| CC(C)(C)c1cc(C(=O)CSc2nnc(Nc3ccccc3)n2-c2ccccc2)cc(C(C)(C)C)c1O [CBK261033] | 88.5793 |
| CC1(C)OC2C(C(=O)O)OC(n3cnc4c(N)ncnc43)C2O1 (stereo not shown) [CBK262912] | 114.629 |
| Cc1ccc(C2=CCN(CC(=O)N(C)C3CCCCC3)CC2)o1 [CBK283633] | 114.015 |
| O=C(Nc1ccc(Oc2cccnc2)cc1)C1CCCN1 (stereo not shown) [CBK282498] | 95.0992 |
| CCn1ncnc1CN1CCOc2ccc(CO)cc2C1 [CBK307245] | 32.681 |
| CN1CCC(N(C)C(=O)c2ccc(-c3ccccc3CO)cc2)C1 (stereo not shown) [CBK307432] | 87.267 |
| Cc1cc(NC(=O)C2CC2)sc1C(=O)NC(C)c1ccc(F)cc1F (stereo not shown) [CBK296625] | 89.8546 |
| Brc1ccc(OCCCCCCN2CCCCC2)cc1 [CBK261784] | 93.7738 |
| COc1cncc(C(NC(=O)Cn2ccccc2=O)[C@H]2C[C@@H](O)C2)c1 (stereo partly shown) [CBK307557] | 59.7822 |
